These results are taken from PubChem BioAssay (NCI).

The structures appear in SMILES notation.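 In this assay, cells in 96-well plates receive the compound at five concentrations for 48 hours. Endpoints are linearly interpolated between the surrounding concentrations. TGI: total growth inhibition.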 The source holds more than one record for some entries. This list holds those alone. An entry can have further records. Results that share an entry repeat one measurement in other runs, samples, wells, individuals or studies. Records carry a tag for their origin. Letters count within one entry.

This assay has as its system OVCAR-5 ovarian. Put plainly: NCI tumour cell line growth inhibition, 48 h.

As to `OCc1ccc(-c2nn(Cc3ccccc3)c3ccccc23)o1`, the TGI is 437 nM [sample A, mean of 2 tests] and 26.9 µM [sample B, 1 test].
